Reference: PubChem BioAssay AID1508642 (National Center for Advancing Translational Sciences (NCATS), 2021)
The campaign covered roughly 43,000 compounds. About 200 (0.47%) were called active. Inconclusive results (about 12%) are left out. The call rests on the fitted dose curve; in most records, active means well fitted cell-killing curve with a large enough effect; inconclusive means small, poorly fitted or top-dose-only effect, or effect the other way; inactive means flat fitted curve, though single readings scatter. Some of the results follow.

Assay: Cell viability qHTS assay in S16 Pmp22-F2sN cells; further: nearly all actives have a fitted effect of over 65% in size
Settings: S16 Pmp22-F2sN Schwann cells viability, CellTiter-Glo, 24 h; series mostly up to 57.5 µM; activity change, negative = cytotoxicity: at the top concentration
Outline: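 Viability was measured by CellTiter-Glo luminescence (15 min, room temperature). This followed 24 h at 37 °C of compound exposure (23 nL pin transfer) in S16 Pmp22-F2sN Schwann cells, 500-1,000 per well.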
On the % scale 0 is the no-effect control and ±100 the full control effect; potency means the concentration at half of the fitted maximal effect.

Compound | activity change, negative = cytotoxicity | Potency
CCN(C(=O)CCS(=O)(=O)c1cc2c(cc1C)NC(=O)CO2)c1cccc(C)c1 | inactive: 15% | 
CCn1c(C)c(C)c2cc(C(=O)N3CCN(c4ccccc4)CC3)ccc21 | inactive: 5.05% | 
CN(C)CCN(Cc1ccccc1)S(=O)(=O)c1csc(C(N)=O)c1 | inactive: -21.7% | 
Cc1cc(NC(=O)c2ccco2)cc(-c2nc3ccccc3o2)c1O | inactive: 3.71% | 
CCCNC(=O)Cn1nc(-c2ccc(C)cc2)c2cnc3ccc(CC)cc3c21 | inactive: 8.43% | 
COc1ccccc1C(=O)NCC(c1ccc(N(C)C)cc1)N1CCc2ccccc21 (configuration not stated) | inactive: 8.47% | 
COc1cc(OC)cc(-n2c(=O)c3ccccc3n(Cc3ccccc3C#N)c2=O)c1 | inactive: -15.2% | 
COC(=O)c1ccccc1NC(=O)Cn1nnc(-c2ccc(OC)cc2)n1 | inactive: -22.5% | 
CCCCc1nn2c(=O)cc(COC(=O)c3ccc4c(c3)OCO4)nc2s1 | inactive: -11.4% | 
CCOC(=O)c1cc(-c2ccc(OC)cc2)n(CCC(=O)Nc2cccc(C)c2C)c1C | inactive: 3.15% | 
COc1cc(NC(=O)c2ccc(-c3nc(CSc4ccccc4)c(C)o3)cc2)cc(OC)c1 | inactive: -14.2% | 
CCc1ccc(NC(=O)Cn2nc(C(F)(F)F)c3c2CCCC3)cc1 | inactive: 0.13% | 
CCC(=O)Nc1cc(-c2cn3cccnc3n2)ccc1OC | inactive: 1.17% | 
CCOc1ccc(-c2cn3c(n2)sc2cc(C(=O)NCCCN4CCCCC4)ccc23)cc1 |  | active: 7.08 µM
CC1=C(C(=O)Nc2ccccc2)C(C(C)C)n2nc(SCc3ccccc3C)nc2N1 (configuration not stated) | inactive: 7.29% | 
Cc1nc(S(=O)(=O)N2CCN(c3cccc(Cl)c3)CC2)cn1C | inactive: 6.82% | 
O=C(NCCc1ccc(Cl)cc1)c1ccc2nc(CCc3ccccc3)oc2c1 | inactive: 5.08% | 
COc1cc(OC)cc(-c2nnc(SCC(=O)c3ccc([N+](=O)[O-])cc3)o2)c1 | inactive: 2.59% | 
CC(C)Cn1c(CN2CCN(c3cccc(Cl)c3)CC2)nc2c1c(=O)[nH]c(=O)n2C | inactive: -5.45% | 
O=C(CSc1nncn2c1cc1occc12)Nc1ccc(F)c(Cl)c1 | inactive: -2.71% | 
COc1ccc(N(CC(=O)NCCc2ccc(C)cc2)S(=O)(=O)c2c(C)nn(C)c2C)cc1 | inactive: 16.3% | 
COc1cc(Nc2nn(-c3ccc(OC(F)(F)F)cc3)nc2C(C)=O)cc(OC)c1 | inactive: -0.368% | 
Cn1c(=O)c2c(nc(N3CCOCC3)n2Cc2ccccc2Cl)n(C)c1=O | inactive: 9.96% | 
COCCCNC(=O)CCCn1c(=O)c2ccccc2n(CC(=O)Nc2ccc(C)cc2Cl)c1=O | inactive: 23.6% | 
CC(C)Cn1c(-c2ccccc2Cl)nc2ccccc21 | inactive: 1.6% | 
O=C(NCCc1ccc(Cl)cc1)c1nnc(Cc2ccc(Cl)cc2Cl)o1 | inactive: 1.06% | 
O=C(CCS(=O)(=O)c1cc2c3c(c1)CCN3C(=O)CC2)Nc1cccc(Br)c1 | inactive: 8.81% | 
